Results: the supplement of paper PMC4604168 (melanoma cell lines)
The list shows a part of the results. Repeats are few or missing, and single values can be far off.

system: COLO792; test: cell count relative to DMSO control; melanoma cells; higher = more viable cells; conditions: library dose: standard library concentration; 72 h
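Further: cells treated in 1,536-well plates, then fixed and DAPI-stained, with nuclei counted from automated high-throughput microscope images.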

| SMILES | cell count [%] |
| --- | --- |
| Cn1c(=O)n(-c2ccc(C(C)(C)C#N)cc2)c2c3cc(-c4cnc5ccccc5c4)ccc3ncc21 + C[C@]1(c2nc3c(C(N)=O)cccc3[nH]2)CCCN1 [Veliparib] (first compound 0.02 µM, partner dose 7 µM) | 68.7 |
| CC(C)C[C@H](NC(=O)[C@H](Cc1ccccc1)NC(=O)c1cnccn1)B(O)O [Bortezomib] + Cc1nc(Nc2ncc(C(=O)Nc3c(C)cccc3Cl)s2)cc(N2CCN(CCO)CC2)n1 [dasatanib] (first compound 0.005 µM, partner dose 0.02 µM) | 24.9 |
| Cc1cc(Nc2cc(N3CCN(C)CC3)nc(/C=C/c3ccccc3)n2)n[nH]1 + C[C@]1(c2nc3c(C(N)=O)cccc3[nH]2)CCCN1 [Veliparib] (first compound 0.2 µM, partner dose 7 µM) | 69.3 |
| Cc1cn(-c2cc(NC(=O)c3ccc(C)c(Nc4nccc(-c5cccnc5)n4)c3)cc(C(F)(F)F)c2)cn1 [nilotinib] + O=c1cc(-c2cccc3c2Sc2ccccc2S3)oc(N2CCOCC2)c1 [KU55933] (first compound 1 µM, partner dose 5 µM) | 97.3 |
| COc1ccc(C2=N[C@@H](c3ccc(Cl)cc3)[C@@H](c3ccc(Cl)cc3)N2C(=O)N2CCNC(=O)C2)c(OC(C)C)c1 [Nutlin-3] + COC(=O)c1sccc1S(=O)(=O)Nc1ccc(Nc2ccccc2)cc1OC [GSK0660] (first compound 0.5 µM, partner dose 5 µM) | 87.2 |
